Single values of this set are uncertain.
Experiment: amyloid nucleation score relative to library mode (yeast Sup35 reporter selection) (log enrichment difference); higher = more amyloid nucleation; sequences are the first 22 residues of the Bri2 peptide extended by up to 12 random residues
Conditions: random library (experiment): 1;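 active = nucleation score significantly above 0 at FDR 0.05; inactive = not significantly above 0 or absent from output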
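Further: [psi-pin-] Saccharomyces cerevisiae expressing SupN fusions, induced by 100 µM Cu2SO4, selected 7 d at 30 °C without adenine and uracil, scored by deep sequencing of output versus input.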

Sequence	amyloid nucleation score
EASNCFAIRHFENKFAVETLICPKWMTTPVGLRD	inactive
EASNCFAIRHFENKFAVETLICRICRFFRPVMAG	inactive
EASNCFAIRHFENKFAVETLICLMPGFCVVALRE	inactive
EASNCFAIRHFENKFAVETLICASETADDGMMMR	inactive
EASNCFAIRHFENKFAVETLICRWPDWPTETVVR	inactive
EASNCFAIRHFENKFAVETLICRLSVLMEWCKDR	inactive
EASNCFAIRHFENKFAVETLICFSHSIRHMESAV	1.59
EASNCFAIRHFENKFAVETLICIRSQSVVRTGVG	inactive
EASNCFAIRHFENKFAVETLICRLFLSRCVKALQ	inactive
EASNCFAIRHFENKFAVETLICYRN	2.57
EASNCFAIRHFENKFAVETLICFTEH	2.45
EASNCFAIRHFENKFAVETLICMYLKMPWYSLWN	inactive
EASNCFAIRHFENKFAVETLICTSWRGKRALPVW	inactive
EASNCFAIRHFENKFAVETLICNFTIFNLLYKAC	5.58
EASNCFAIRHFENKFAVETLICCRWNEHAGCGAV	inactive
EASNCFAIRHFENKFAVETLICLVWNGVWKAREA	inactive
EASNCFAIRHFENKFAVETLICNFSQSQEENFWR	8.02
EASNCFAIRHFENKFAVETLICGTGEHDGHNVPG	1.35
EASNCFAIRHFENKFAVETLICLVLCPKYDTRSR	3.67
EASNCFAIRHFENKFAVETLICLDLLLMNSSKTA	inactive
EASNCFAIRHFENKFAVETLICLIDIEFSSDGAR	5.6
EASNCFAIRHFENKFAVETLICRGRIRQCLVSVA	inactive
EASNCFAIRHFENKFAVETLICVSRTWGTVGWPR	inactive
EASNCFAIRHFENKFAVETLICDLVMKKF	inactive

Same assay, conditions: random library (experiment): 2

Sequence	amyloid nucleation score
EASNCFAIRHFENKFAVETLICVYYKLDKRNVSV	inactive
EASNCFAIRHFENKFAVETLICECLGFYRACNCV	7.38
EASNCFAIRHFENKFAVETLICVNLMNHQNIRSW	6.43
EASNCFAIRHFENKFAVETLICRTLYYHMYWTLW	inactive
EASNCFAIRHFENKFAVETLICRFESSTRLYHLL	inactive
EASNCFAIRHFENKFAVETLICDMGLAYCNHYVN	inactive
EASNCFAIRHFENKFAVETLICNDGLWILVGRFV	inactive
EASNCFAIRHFENKFAVETLICITYLNVF	7.36
EASNCFAIRHFENKFAVETLICTDNSRLKRYLID	inactive
EASNCFAIRHFENKFAVETLICFAGSFNTLVHGD	6.94
EASNCFAIRHFENKFAVETLICHFKRLRVKEWAV	5.43
EASNCFAIRHFENKFAVETLICNYWAMESVIGDV	inactive
EASNCFAIRHFENKFAVETLICTNLSIISLHNRV	9.24

Same assay, conditions: random library (experiment): 3

Sequence	amyloid nucleation score
EASNCFAIRHFENKFAVETLICLQWC	7.74
EASNCFAIRHFENKFAVETLICPPVWWGVASACR	inactive
EASNCFAIRHFENKFAVETLICYVLIPIDCVGGN	1.36
EASNCFAIRHFENKFAVETLICEPQTSDGARPVR	inactive
EASNCFAIRHFENKFAVETLICWEYCPFLASKWV	inactive
EASNCFAIRHFENKFAVETLICRGSNVWT	inactive
EASNCFAIRHFENKFAVETLICVWGE	5.21
EASNCFAIRHFENKFAVETLICMQV	inactive
EASNCFAIRHFENKFAVETLICHYLFSSVLNVEA	inactive
EASNCFAIRHFENKFAVETLICIGRRVLMHVGVR	inactive

Source: the supplement of paper PMC12067230
